# Measured values reported in publication PMC12136788.
# Some of the results follow.
# B1: chr20:25296659:25296760:+|3pUTR|ENSG00000100994|msi1|FALSE|unique (ssRNA)
# RNA: GGGAGUUCUACAGUCCGACGAUCUGGGGGUCAGGGUGGUUUUGAGAGAGCAGGGUAAGGAAGGAAUGUGCUAGAAGUGCUCCUAGUUUCUUGUAAAGGAAGCCAGAGUUGACAGUACAAAGGGUCGUGGCCAGCCCUGCAGCUCAACAGAGGAUUGAGCAUCA
# B2: chr1:162523450:162523604:+|3pUTR|ENSG00000152332|msi1|total|mutant (ssRNA)
# RNA: GGGAGUUCUACAGUCCGACGAUCAGACUAAGUUGUGCCAGAUGUAAAUCAACCCCUCUUUCCGUUUACUUCCGACUUUGUAUCCGCUCAUCUUUUUUGCCGUAAAUCUACCGUUUUAAGGUUUCUCAAGAUGUGGCUCUACCUCAACAGAGGAUUGAGCAUCA
# B3: chr9:128390415:128390516:+|3pUTR|ENSG00000167118|msi1|FALSE|unique (ssRNA)
# RNA: GGGAGUUCUACAGUCCGACGAUCCUUACAGCUCAUUCUGCUGGGGGUAGAGAUGAGGGGAGGGAGUAAGUUAAACCUUGGACUAGCAAGUAGAAGCCUGGGGGGAUGCGUGUGCCUCAGUUUCCUCCUCCACAACUGAAUAUACAACAGAGGAUUGAGCAUCA
# B4: chr21:36753219:36753320:-|3pUTR|ENSG00000159267|msi1|total|mutant (ssRNA)
# RNA: GGGAGUUCUACAGUCCGACGAUCGUUUCAGAUUUACUCUGAAAUGUGGAGCAUUCCUGCAAGACUGUGCAGCUCACGGAAUACCGAAGACAUGGCAUUUUACUCAGAAGUCAUAAGUUUUUGCCCCCCUCAUUUACCUCGUAUCAACAGAGGAUUGAGCAUCA
# B5: chr6:38153770:38153871:+|3pUTR|ENSG00000156639|msi1|FALSE|unique (ssRNA)
# RNA: GGGAGUUCUACAGUCCGACGAUCGGUGGACAGGAUCAGGAUUCCCUUGAAAGCCCAGGCAGGGUGAGCAGUCCCAGUGGUCCUAGUGCCGCAUCAGAUCCAGGUGGGUGAGGGCAGGAGGCCCCUGCGGAGGCAGCGUGGAUCCAACAGAGGAUUGAGCAUCA
# B6: chr1:46929176:46930310:-|three_prime_utr|ENSG00000187048|control|control|control (ssRNA)
# RNA: GGGAGUUCUACAGUCCGACGAUCAAGGCUACCCUGACGCACCAUAAUCUAAGCCCGGGGCAUAAAACCCCUCGUGGCUUGGAUAGAAUCCAGGGCUCGUGGCUCUGGAAUGUGUCUGAACUUGCUGCCUCCUCGCUCCUUGCUCAACAGAGGAUUGAGCAUCA
# B7: chr1:53088011:53088246:-|CDS|ENSG00000162383|control|control|control (ssRNA)
# RNA: GGGAGUUCUACAGUCCGACGAUCCAAGCCAGUGAGCCUCCAGGAGAUCGUGGCAGCCCAGCAGAAUGGCUGUGUGAAGAGUGUAGCCGAGGCCUCCGAGCUCACCCUGGGCCCCACCUGCCCCCACCACGUCCCCGUUCAAGUCAACAGAGGAUUGAGCAUCA
# B8: chr19:45890022:45890622:-|three_prime_utr|ENSG00000176182|control|control|control (ssRNA)
# RNA: GGGAGUUCUACAGUCCGACGAUCUCUCCCCAGCUUGGCGCAGUCGAGGGGGGCGAUGCUCUCUGCCCAUCCCAGCUGCACCCUAGCUCCCUGCUCCAGGGAUGUGAGCACCCACUCCCUGUGCUAGUUAGUGCCUGAUUCUCUCAACAGAGGAUUGAGCAUCA
# B9: chr5:140245379:140245480:-|3pUTR|ENSG00000113068|msi1|FALSE|unique (ssRNA)
# RNA: GGGAGUUCUACAGUCCGACGAUCUCUUCUCUUUUCCCUUCCUGUACCUUUGACUAACGCUCAGCUUCCGGGCCUGCAUGCAGUAGACAGAAGAGGAAGAAAGAACAGAUGUUCACAGCUGAAUCUCAGUGAACAGAAUAGCAGCAACAGAGGAUUGAGCAUCA
# B10: chr11:61865769:61866452:+|3pUTR|ENSG00000134824|msi1|FALSE|unique (ssRNA)
# RNA: GGGAGUUCUACAGUCCGACGAUCUGCAGCCUGGUCACUAGGCAUCACCCCCGCUUUGGUUCUUCAGAUGCUCUUGGGGUUCAUAGGGGCAGGUCCUAGUCGGGCAGGGCCCCUGACCCUCCCGGCCUGGCUUCACUCUCCCUGCAACAGAGGAUUGAGCAUCA
# B11: chr3:15690066:15690176:-|CDS|ENSG00000206560|unk|total|mutant (ssRNA)
# RNA: GGGAGUUCUACAGUCCGACGAUCAGUGUUGGUACAGUCUUUGUCCGAUCUUGAUGUCAGAAACCGCCGUGGAAGAACACCCCCCGAUCUUGCAGCUUUUAAGGGCCAUGUUGAAUGUGUGGAUGUACUCAUUAAUCAGGGAGCCAACAGAGGAUUGAGCAUCA
# B12: ENSG00000070961:be:win_5101|3pUTR|ENSG00000070961|bound_else_gene|NA|bound_elsewhere_windowed (ssRNA)
# RNA: GGGAGUUCUACAGUCCGACGAUCAUGACCACCAUUGUCUUUGAUACAUUUAUUUUAAUUCUUAAGUGGCCAAAUAACAGAUUAGGUAAAAUGAGAUUACAUGAAAAGGUUCUAAAAUGAUAUAUUUAGAUGCAAUAAUUAACCCAACAGAGGAUUGAGCAUCA
# B13: chr3:36528868:36528981:+|CDS|ENSG00000144681|unk|FALSE|unique (ssRNA)
# RNA: GGGAGUUCUACAGUCCGACGAUCAGAAUUGGCUUCUUUCCAGCCAACUUUGUUCAGAGACUACAACAAAAUGAGAAGAUUUUUAGAUGUGUUAGAACCUUCAUUGGGUGUAAGGAACAGGGGCAGAUAACACUGAAAGAGAAUCAACAGAGGAUUGAGCAUCA
# B14: chr1:56708525:56708626:+|3pUTR|ENSG00000162409|unk|total|mutant (ssRNA)
# RNA: GGGAGUUCUACAGUCCGACGAUCACCUUUCUCAAAUUCUUUUUGCCUCUAUUUAUUUUUGCAUUUCACCAACAGUGAUAAAACCGUUAAAUGAAACAAAGCAAAGUAUCAACAGUCCCUUAAAUGAGAAUCCUUAUCUUUGAUCAACAGAGGAUUGAGCAUCA
# Target: MSI1 full-length (mouse, UniProt Q61474 1-362)
# UniProt Q61474, sequence (Q61474 whole entry): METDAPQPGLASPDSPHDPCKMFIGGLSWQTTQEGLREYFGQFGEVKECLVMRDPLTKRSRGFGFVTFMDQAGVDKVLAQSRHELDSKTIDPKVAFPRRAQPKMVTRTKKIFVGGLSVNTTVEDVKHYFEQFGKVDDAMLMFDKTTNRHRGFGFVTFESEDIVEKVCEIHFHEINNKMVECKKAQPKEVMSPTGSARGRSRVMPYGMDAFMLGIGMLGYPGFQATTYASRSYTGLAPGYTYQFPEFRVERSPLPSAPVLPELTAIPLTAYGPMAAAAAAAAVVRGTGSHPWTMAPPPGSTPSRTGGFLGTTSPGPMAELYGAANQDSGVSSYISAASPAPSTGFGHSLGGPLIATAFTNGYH
# Test: nsRBNS (natural sequence RNA bind-n-seq); RBNS binding buffer (assumed for nsRBNS): 25 mM Tris pH 7.5, 150 mM KCl, 3 mM MgCl2, 0.01% Triton X-100, 500 ug/ml BSA, 20 U/ml SUPERase-In, 4 C; UNK is unkempt and MSI1 is Musashi-1; names of the RNAs are library labels; protein concentration not given here; high values mean tight binding
row,Binder,binding signal [enrichment R]
1,B1,0.706
2,B2,0.276
3,B3,1.01
4,B4,0.414
5,B5,0.41
6,B6,0.304
7,B7,0.677
8,B8,0.626
9,B9,0.346
10,B10,0.473
11,B11,0.359
12,B12,9.91
13,B13,0.844
14,B14,0.454
